{"source": "the supplement of paper PMC8728848", "test_in_all_cases": "glycan array binding signal (z-score within array); higher = stronger binding", "conditions_in_all_cases": "glycan notation: IUPAC condensed, linker removed", "key": {"Fuc(a1-2)Gal": {"target": "Fuc(a1-2)Gal", "in_short": "(§1)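 Glycan array data were curated from 3228 arrays in the Consortium for Functional Glycomics database and kept only where the protein sequence was available. Glycan names were converted to IUPAC-condensed notation, and columns mapping to the same glycan were averaged. The binding signal is a within-array Z-score, averaged across arrays of the same protein sequence at different concentrations or buffers and across linkers. Negative Z-scores can be read as non-binding.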"}, "Fuc(a1-2)Gal(b1-3)GalNAc": {"target": "Fuc(a1-2)Gal(b1-3)GalNAc", "in_short": "as §1"}, "[1]": {"target": "Fuc(a1-2)Gal(b1-3)GalNAc(b1-3)Gal", "in_short": "as §1"}, "[2]": {"target": "Fuc(a1-2)Gal(b1-3)GalNAc(b1-3)Gal(a1-4)Gal(b1-4)Glc", "in_short": "as §1"}, "[3]": {"target": "Fuc(a1-2)Gal(b1-3)GalNAc(b1-4)[Neu5Ac(a2-3)]Gal(b1-4)Glc", "in_short": "as §1"}, "Fuc(a1-2)Gal(b1-3)GlcNAc": {"target": "Fuc(a1-2)Gal(b1-3)GlcNAc", "in_short": "as §1"}, "[4]": {"target": "Fuc(a1-2)Gal(b1-3)GlcNAc(b1-3)Gal(b1-4)Glc", "in_short": "as §1"}, "[5]": {"target": "Fuc(a1-2)Gal(b1-3)[Fuc(a1-4)]GlcNAc", "in_short": "as §1"}, "Fuc(a1-2)Gal(b1-4)Glc": {"target": "Fuc(a1-2)Gal(b1-4)Glc", "in_short": "as §1"}, "Fuc(a1-2)Gal(b1-4)Glc6S": {"target": "Fuc(a1-2)Gal(b1-4)Glc6S", "in_short": "as §1"}, "Fuc(a1-2)Gal(b1-4)GlcNAc": {"target": "Fuc(a1-2)Gal(b1-4)GlcNAc", "in_short": "as §1"}, "[6]": {"target": "Fuc(a1-2)Gal(b1-4)GlcNAc(b1-3)Gal(b1-4)GlcNAc", "in_short": "as §1"}, "[7]": {"target": "Fuc(a1-2)Gal(b1-4)GlcNAc(b1-3)Gal(b1-4)GlcNAc(b1-3)Gal(b1-4)GlcNAc", "in_short": "as §1"}, "[8]": {"target": "Fuc(a1-2)Gal(b1-4)GlcNAc6S", "in_short": "as §1"}, "[9]": {"target": "Fuc(a1-2)Gal(b1-4)[Fuc(a1-3)]GlcNAc", "in_short": "as §1"}, "[10]": {"target": "Fuc(a1-2)Gal(b1-4)[Fuc(a1-3)]GlcNAc(b1-3)Gal(b1-4)[Fuc(a1-3)]GlcNAc", "in_short": "as §1"}, "[11]": {"target": "Fuc(a1-2)Gal(b1-4)[Fuc(a1-3)]GlcNAc(b1-3)Gal(b1-4)[Fuc(a1-3)]GlcNAc(b1-3)Gal(b1-4)[Fuc(a1-3)]GlcNAc", "in_short": "as §1"}, "Fuc(a1-2)Gal6S(b1-4)Glc": {"target": "Fuc(a1-2)Gal6S(b1-4)Glc", "in_short": "as §1"}, "[12]": {"target": "Fuc(a1-2)Gal6S(b1-4)Glc6S", "in_short": "as §1"}, "[13]": {"target": "Fuc(a1-2)Gal6S(b1-4)GlcNAc", "in_short": "as §1"}, "Fuc(a1-2)GlcNAc": {"target": "Fuc(a1-2)GlcNAc", "in_short": "as §1"}, "Fuc(a1-2)[Gal(a1-3)]Gal": {"target": "Fuc(a1-2)[Gal(a1-3)]Gal", "in_short": "as §1"}, "[14]": {"target": "Fuc(a1-2)[Gal(a1-3)]Gal(b1-3)GlcNAc", "in_short": "as §1"}, "[15]": {"target": "Fuc(a1-2)[Gal(a1-3)]Gal(b1-4)Glc", "in_short": "as §1"}, "[16]": {"target": "Fuc(a1-2)[Gal(a1-3)]Gal(b1-4)GlcNAc", "in_short": "as §1"}, "[17]": {"target": "Fuc(a1-2)[Gal(a1-3)]Gal(b1-4)[Fuc(a1-3)]GlcNAc", "in_short": "as §1"}, "[18]": {"target": "Fuc(a1-2)[Gal(a1-4)]Gal(b1-4)GlcNAc", "in_short": "as §1"}, "[19]": {"target": "Fuc(a1-2)[GalNAc(a1-3)]Gal", "in_short": "as §1"}, "[20]": {"target": "Fuc(a1-2)[GalNAc(a1-3)]Gal(b1-3)GlcNAc", "in_short": "as §1"}, "[21]": {"target": "Fuc(a1-2)[GalNAc(a1-3)]Gal(b1-4)Glc", "in_short": "as §1"}}, "note": "The list shows a part of the results.", "data": [{"binder": "P-Selectin (Mus musculus), Q01102 (protein) MAGCPKGSWTPRLRSVILGGAQLIWFSALISELVNQKEVAAWTYNYSTKAYSWNNSRVFCRRHFTDLVAIQNKNEIAHLNDVIPFFNSYYWIGIRKINNKWTWVGTNKTLTEEAENWADNEPNNKKNNQDCVEIYIKSNSAPGKWNDEPCFKRKRALCYTASCQDMSCSNQGECIETIGSYTCSCYPGFYGPECEYVKECGKVNIPQHVLMNCSHPLGEFSFNSQCTFSCAEGYELDGPGELQCLASGIWTNNPPKCDAVQCQSLEAPPHGTMACMHPIAAFAYDSSCKFECQPGYRARGSNTLHCTGSGQWSEPLPTCEAIACEPPEIPIHGSMDCVPSTGTFGYNSSCTFLCAEGFVLKGNDAIQCADSGQWTAPAPFCEALQCPEFPVPSKAQVNCSDPFGTLTYQSVCSFSCDEGSLLVGASVIRCLATGHWNGAPPECQAVSCAPMLSPENGSMTCVQPLGNSTYKSTCQFMCDEGFYLSGPERLDCSPSGHWTGTPPTCEAIKCPGIFAPEQGNLDCSHVHGEFGVGSICHFSCNEDFELLGSENVECTVSGRWSAPPPTCKGITSLPAPAVRCPALTTPGQGTMSCQHHLGSFGPNTTCYFGCKTGFTLRGANSLRCRASGQWTAVTPMCRAVKCSELHMDTAVAMNCSNPWGNFSYGSTCTFQCPEGQSLNGSVRATCREDGHWSDAMPTCQAGTLTIQEALTYLGGAVASTTGLAVGGTLLALLRKRLRKKDDGKCPLNPHSHLGTYGVFTNAAYDPTP", "values": [{"measurement": "glycan array binding signal (z-score)", "setting": "Fuc(a1-2)Gal", "result": -0.783}, {"measurement": "glycan array binding signal (z-score)", "setting": "Fuc(a1-2)Gal(b1-3)GalNAc", "result": -0.39}, {"measurement": "glycan array binding signal (z-score)", "setting": "[1]", "result": -0.303}, {"measurement": "glycan array binding signal (z-score)", "setting": "[2]", "result": -0.365}, {"measurement": "glycan array binding signal (z-score)", "setting": "[3]", "result": -0.426}, {"measurement": "glycan array binding signal (z-score)", "setting": "Fuc(a1-2)Gal(b1-3)GlcNAc", "result": -0.472}, {"measurement": "glycan array binding signal (z-score)", "setting": "[4]", "result": -0.447}, {"measurement": "glycan array binding signal (z-score)", "setting": "[5]", "result": 0.964}, {"measurement": "glycan array binding signal (z-score)", "setting": "Fuc(a1-2)Gal(b1-4)Glc", "result": -0.7}, {"measurement": "glycan array binding signal (z-score)", "setting": "Fuc(a1-2)Gal(b1-4)Glc6S", "result": -0.065}, {"measurement": "glycan array binding signal (z-score)", "setting": "Fuc(a1-2)Gal(b1-4)GlcNAc", "result": -0.359}, {"measurement": "glycan array binding signal (z-score)", "setting": "[6]", "result": -0.467}, {"measurement": "glycan array binding signal (z-score)", "setting": "[7]", "result": -0.435}, {"measurement": "glycan array binding signal (z-score)", "setting": "[8]", "result": -0.129}, {"measurement": "glycan array binding signal (z-score)", "setting": "[9]", "result": 0.373}, {"measurement": "glycan array binding signal (z-score)", "setting": "[10]", "result": 0.133}, {"measurement": "glycan array binding signal (z-score)", "setting": "[11]", "result": 0.167}, {"measurement": "glycan array binding signal (z-score)", "setting": "Fuc(a1-2)Gal6S(b1-4)Glc", "result": -0.301}, {"measurement": "glycan array binding signal (z-score)", "setting": "[12]", "result": 0.13}, {"measurement": "glycan array binding signal (z-score)", "setting": "[13]", "result": -0.254}, {"measurement": "glycan array binding signal (z-score)", "setting": "Fuc(a1-2)GlcNAc", "result": -0.751}, {"measurement": "glycan array binding signal (z-score)", "setting": "Fuc(a1-2)[Gal(a1-3)]Gal", "result": -0.534}, {"measurement": "glycan array binding signal (z-score)", "setting": "[14]", "result": -0.624}, {"measurement": "glycan array binding signal (z-score)", "setting": "[15]", "result": -0.517}, {"measurement": "glycan array binding signal (z-score)", "setting": "[16]", "result": -0.516}, {"measurement": "glycan array binding signal (z-score)", "setting": "[17]", "result": 0.906}, {"measurement": "glycan array binding signal (z-score)", "setting": "[18]", "result": -0.442}, {"measurement": "glycan array binding signal (z-score)", "setting": "[19]", "result": -0.41}, {"measurement": "glycan array binding signal (z-score)", "setting": "[20]", "result": -0.409}, {"measurement": "glycan array binding signal (z-score)", "setting": "[21]", "result": -0.5}]}]}
